The BET-seq Pho4 binding data (Le et al. 2018)
This is one part of the list. The energies were worked out here from pooled read counts, against the library average; single values are noisy.

These sequences were tested against T1, Pho4 (S. cerevisiae) (UniProt P07270) (assay: relative binding free energy (BET-seq); higher = weaker binding). Conditions: reference: library average.
T1 sequence: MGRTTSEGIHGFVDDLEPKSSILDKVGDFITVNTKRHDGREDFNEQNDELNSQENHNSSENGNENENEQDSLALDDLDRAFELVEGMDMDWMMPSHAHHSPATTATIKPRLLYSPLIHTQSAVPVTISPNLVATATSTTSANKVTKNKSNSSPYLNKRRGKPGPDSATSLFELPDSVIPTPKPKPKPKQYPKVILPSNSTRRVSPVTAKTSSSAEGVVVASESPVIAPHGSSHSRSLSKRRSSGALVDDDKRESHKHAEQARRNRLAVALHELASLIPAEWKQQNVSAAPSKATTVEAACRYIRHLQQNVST

Sequence	relative binding free energy [kcal/mol]
GTGAACACGTGGGGAT	-0.02
AAGTGCACGTGGGTAT	-0.12
ATTTGCACGTGTGTCA	0.04
GGTTTCACGTGGATCG	0.33
TATCACACGTGAATGT	0.34
AGGATCACGTGTTATA	0.15
TTTTTCACGTGATCAT	0.19
GGATCCACGTGTTTGG	0.07
TGAGGCACGTGGGGCA	-0.27
AGATACACGTGTGGGC	0.15
TAGGGCACGTGCTTAT	-0.2
GTGCACACGTGTCGGT	0.12
GGGGGCACGTGCACTG	-0.03
TCGGGCACGTGTGGTG	0
ATCGGCACGTGTATAG	-0.05
AGCGCCACGTGGTGGT	-0.18
GAGTTCACGTGTGGTG	0.36
CGAGGCACGTGGAAGT	0.02
CTCGGCACGTGAAGTG	0.07
GAAGCCACGTGATGGG	0.17
ACAAACACGTGGGTTG	-0.02
TTGAACACGTGGATTG	0.01
AAGTTCACGTGATAAG	0.3

Sequence	relative binding free energy [kcal/mol]
GGTCGCACGTGGGCAT	-0.15
GCTGTCACGTGATGAG	0.14
ATGTGCACGTGGTTGC	-0.09
ATTGCCACGTGATAGG	0.03
CATGACACGTGAGGGG	0.36
GGTGACACGTGCTTTA	0
TGAGCCACGTGGTCGG	-0.18
GGTTTCACGTGTGATG	0.29
GTTTACACGTGAGCGA	0.32
ATGGTCACGTGGGAAA	0.19
AAGAGCACGTGTTATG	-0.05
TTGTTCACGTGGCGCT	0.1
GTCGGCACGTGCATGG	-0.16
AGGGGCACGTGGTTTG	-0.13
TTTATCACGTGGATTG	0.18
TTAGTCACGTGCAGTT	0.06
TTGATCACGTGTAGGG	0.13
GTTTGCACGTGCCTTG	0.05
TATCTCACGTGAGGTG	0.33
TAGTACACGTGTGTAA	0.1
ATTATCACGTGTACGG	0
TTTTTCACGTGGTTCT	0.34
TTGGTCACGTGGAATA	0.11

Sequence	relative binding free energy [kcal/mol]
GAGATCACGTGTGTAG	0.24
TACAGCACGTGTAGTG	-0.11
GAGGACACGTGGATTG	0.28
TGAGTCACGTGCGTAT	0.04
CTGAGCACGTGGTGAG	-0.06
TTTGACACGTGAAATG	0.03
GTCAGCACGTGATTTG	0.16
GGGGGCACGTGAGGCT	0.18
GGGGCCACGTGGAGGC	-0.24
TTTCTCACGTGAGCGT	0.33
GTGTGCACGTGTGCGA	0.09
AGAGCCACGTGTGTGG	-0.15
GTGGACACGTGAGGGG	0.28
TTGTGCACGTGCTTGG	-0.09
GTTTACACGTGAGGAT	0.5
GTGGGCACGTGGTCTG	-0.24
TTGTGCACGTGGGACA	-0.07
AACGGCACGTGTAGTT	0.05
CTATTCACGTGGGGAT	0.15
GTTTGCACGTGAGGGA	0.26
AGAGTCACGTGAGAAT	0.45
TGTTGCACGTGATAGC	0.08
AATGGCACGTGATGCT	0.07

Sequence	relative binding free energy [kcal/mol]
TAATGCACGTGGCTTT	-0.07
GTGGCCACGTGGGGGA	-0.27
TCGTTCACGTGTTAGT	0.35
GAGGGCACGTGTGACT	-0.01
AGGCGCACGTGGTGGA	-0.11
TGTCCCACGTGGTGGG	-0.26
AAATACACGTGGGTGG	-0.02
AGGCACACGTGGGAAG	0.03
CAGGTCACGTGTTTTT	0.25
TGTTACACGTGGAGTA	0.08
AAGTACACGTGTAATT	0.25
GTAGTCACGTGGTGAT	0
CTTTGCACGTGGTCTT	-0.09
GTTGTCACGTGGGTTA	0.03
TCGGTCACGTGGAGGG	0.12
GGGGGCACGTGATGTT	0.1
TATGGCACGTGAGGCT	-0.08
TGAGGCACGTGTTCAT	-0.06
CAGCTCACGTGTGTGG	0.18
GAAAACACGTGATGGT	0.25
TGGTTCACGTGAGAAA	0.41
CTGGACACGTGGGGTG	-0.07
ATAGGCACGTGTGACT	-0.03

Sequence	relative binding free energy [kcal/mol]
GTCGGCACGTGAAATT	0.31
GCAAGCACGTGTAGGG	-0.14
CACGGCACGTGGCGGG	-0.15
GGGTACACGTGGTGCA	-0.06
GGTGGCACGTGGAGGT	0.01
TGTGGCACGTGGAATA	0.09
TTGGGCACGTGCCGAA	-0.02
TTTTTCACGTGAACGG	0.56
TTGATCACGTGAAGTT	0.39
TTGCGCACGTGGGCAT	-0.15
AGGCCCACGTGGGGGA	-0.3
TAGGTCACGTGTAAGG	0.28
TGCTACACGTGTGTTA	0.04
TGGTCCACGTGGTAAA	0.03
TGAATCACGTGTTTTT	0.17
GGTAACACGTGTGATC	0.2
GGAGGCACGTGGATAT	-0.02
ATAGGCACGTGGTAGC	-0.26
TTCTTCACGTGATTGC	0.4
CAGTACACGTGGGGGA	-0.11
ATTGTCACGTGGGCAA	-0.14
ATGGGCACGTGCTGTG	-0.18
TAGAGCACGTGAGGAG	0.05
